# Test results taken from paper PMC12040169 (PLOS Biology, 2025).
# The list shows a part of the results.
# Tested on: T1, C. trachomatis L2/434/Bu expressing GFP (CTL2-GFP)
# T1 construct: L2/434/Bu GFP intracellular growth in HeLa cells
# Design: species or system HeLa; C. trachomatis total inclusion area by high-content imaging, normalised to DMSO
# Conditions: total inclusion area; 28.5 h, 10 µM; inhibitor
# In short: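 High-content imaging followed the bulk GFP/resorufin measurement: fixed, Hoechst-stained cells were scored for GFP inclusions and host nuclei per well. Total inclusion area and count served as growth proxies, nuclei number as the viability proxy. MIC calculation matched the bulk assay.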
row,SMILES,% of control remaining
1,O=C(NCCc1c[nH]c2ccccc12)N1CCN(Cc2ccccc2)CC1 [CBK155646],113.267
2,CNC(=O)C1(Cc2ccc(-c3ccccc3)cc2)CCN(C(=O)CC2CCCCC2)CC1 [CBK285763],95.5888
3,O=C(O)c1ccc(CSc2nc(-c3ccccc3)cc(C(F)(F)F)n2)o1 [CBK269514],101.871
4,CC(=O)N1CCC[C@H]2NC(=O)CNC(=O)C3(C/C=C/C[C@H]21)CCN(CC(N)=O)CC3 [CBK292135],93.3282
5,CN(C)c1ncc(-c2ccc(Cl)cc2)c(C2CCCN2C(=O)CN2CCCC2)n1 (stereo not shown) [CBK286037],112.037
6,COCCN1C(=O)c2ccc(C(=O)Nc3cc(C(=O)O)cc(C(=O)O)c3)cc2C1=O [CBK268444],103.137
7,CCOC(=O)c1cc(-c2cccc(Cl)c2)oc1C [CBK045775],83.876
8,COc1ccccc1OCC(=O)NCc1ccc(-c2csnn2)cc1 [CBK149303],43.6899
9,COc1ccc(Cl)cc1S(=O)(=O)N(C)CC(=O)O [CBK269919],83.6105
10,CCOC(=O)c1c(NC(=O)CSc2nnc(C)s2)sc2c1CCC2 [CBK263183],88.6431
11,O=C(OCCc1c[nH]c2ccccc12)N1CCOCC1 [CBK200415],98.8356
12,Cc1ccc(C2(C(=O)NCCCn3ccnc3C)CCOCC2)cc1 [CBK281588],108.923
13,CC(C)n1c(=O)n(CC(=O)NC2CCCC2)c2cccnc21 [CBK283700],106.73
14,Cc1ccc(C2=CCN(CC(=O)NC3CCCC3)CC2)o1 [CBK283605],108.381
15,COc1nn(CC(=O)NC2(C)CCC2)c(=O)c2ccccc12 [CBK281603],100.278
16,COC(=O)c1sccc1NC(=O)COc1ccc([N+](=O)[O-])cc1Cl [CBK066828],105.998
17,Cc1ccc(-c2cc(O)n(-c3nc(C)cc(C)n3)n2)cc1 [CBK270165],80.8698
18,Nc1ncnc2c1nc1n2[C@@H]2O[C@H](C1)[C@H](O)C2O (stereo partly shown) [CBK201224],106.337
19,COc1ccc(CCCC(=O)Nc2ccccc2N2CCNCC2)cc1OC [CBK028283T],80.9546
20,CCN(CC)C(=O)c1ccc(NS(=O)(=O)Cc2ccccc2[N+](=O)[O-])cc1 [CBK034396],105.185
21,CC(=O)N[C@@H](C(=O)N1CC[C@@H]2NC(=O)[C@@H](Cc3ccccc3)NC(=O)C3(C/C=C/C[C@H]2C1)CCOCC3)C(C)C [CBK292198],81.7123
22,O=C(O)c1c(NS(=O)(=O)Cc2ccccc2[N+](=O)[O-])sc2c1CCCC2 [CBK024819],91.477
23,Clc1cc2nc(SCCc3cnccn3)c(N3CCCC3)nc2cc1Cl [CBK103700],100.661
24,CC(C)(C)OC(=O)N1CCCC(C(=O)NC(CO)Cc2ccccn2)C1 (stereo not shown) [CBK305458],116.663
25,Cc1ccc(C(=O)N2CCC(CO)CC2)cc1C [CBK083532],94.6389
26,O=C(CSCCO)Nc1ccc(N2CCOCC2)cc1 [CBK269616],101.909
27,COc1ccc([C@@]23CC[C@@H](NC(=O)Nc4c(F)cc(F)cc4Cl)C[C@@H]2N(C)CC3)cc1OC [CBK073740T],88.9697

row,SMILES,% of control remaining
1,CCc1ccc(CNC(=O)NC2CCCc3c2cnn3CCO)s1 (stereo not shown) [CBK305747],70.2103
2,COCCn1c(SC(C)C(=O)OC)nc2ccc(Br)cc2c1=O (stereo not shown) [CBK306479],69.5417
3,COCCNC(=O)c1cc(-c2cc(C)oc2C)nc2c1cnn2C(C)C [CBK305052],116
4,COc1ccc(C(=O)N(C)Cc2cnn(C)c2)cc1Br [CBK305149],32.7473
5,Cc1ccc(S(=O)(=O)NCC(=O)O)c2nsnc12 [CBK261140],97.8562
6,CC(C)(C)OC(=O)N1CCC2(CC1)NC(=O)c1cc(-c3cccnc3)ccc1O2 [CBK083517],64.4923
7,COc1ccc(OC)c(C(=O)N2CCNC(=O)C2Cc2ccccc2-c2ccc(F)cc2)c1 (stereo not shown) [CBK285829],105.541
8,c1ccc2cc(-c3cc(Nc4ccc(N5CCOCC5)cc4)ncn3)ccc2c1 [CBK090929],130.498
9,O=C(NC(c1ccccc1)c1ccccn1)c1ccco1 (stereo not shown) [CBK144109],83.2245
10,O=C(CSCc1nc2ccccc2[nH]1)Nc1ccc2ccccc2c1 [CBK263262],86.1027
11,Cc1nn(C(C)C)c(C)c1CN(Cc1ccccn1)Cc1ccco1 [CBK283221],61.7463
12,CCNC(=O)C1(Cc2ccccc2-c2ccccc2)CCN(C(=O)c2ccccc2)CC1 [CBK285700],100.63
13,COc1cc(OC)c(CN(C)CCN(C)C)cc1Br [CBK021255],70.4917
14,O=c1cc(O)c2c(=O)n(-c3ccccc3)c(-c3ccccc3)cc2o1 [CBK006116],96.3799
15,NC(=O)CN1C(=O)CO[C@H]2CN(Cc3ccccc3F)C[C@H]21 [CBK289693],87.3963
16,Cc1ccc(S(=O)(=O)Nn2cnnc2)cc1 [CBK027263],46.8794
17,CC1=C(C)CC(C(=O)NC(C)CCc2ccccc2)C(C(=O)O)C1 (stereo not shown) [CBK265452],101.79
18,O=c1c2ccccc2nc(CSc2ncnc3[nH]cnc23)n1-c1ccc(Cl)c(Cl)c1 [CBK217854],100.866
19,CCOc1ccc2[nH]c(=O)c(/C=C3\SC(=S)N(CCC(=O)O)C3=O)cc2c1 [CBK265213],83.7784
20,Cn1c(SCC(=O)Nc2ccnc3ccccc23)nnc1-c1ccncc1 [CBK267867],82.907
21,COc1nnc(-c2ccc(N3CCOCC3)c(NC(=O)COc3cccc(C)c3)c2)c2ccccc12 [CBK266207],115.14
22,CNC(=O)N(O)C1N(NC(=O)Nc2ccccc2)C(=S)SC1(C)C (stereo not shown) [CBK261005],103.564
23,O=C(O)C1C2C=CC(O2)C1C(=O)Nc1ccc2c(c1)OCO2 (stereo not shown) [CBK265475],60.9969
24,CCc1c(C)nc2ccccc2c1SC[C@H](NC(C)=O)C(=O)O [CBK153459T],77.7387
25,CCS(=O)(=O)c1ccc2cc(C(=O)O)[nH]c2c1 [CBK286951],115.004
26,CN(C)c1cccc(Oc2nc3c(c(=O)n(C)c(=O)n3C)n2C)c1 [CBK270109],108.502
27,Cc1csc2ncc(C(=O)Nc3ccccc3C(F)(F)F)c(=O)n12 [CBK287456],69.3263

row,SMILES,% of control remaining
1,Cn1cnc(C(=O)N2CC[C@H]3NC(=O)c4ccccc4OCCCCC[C@H]3C2)c1 [CBK292031],93.3306
2,COc1ccc(N2CCN(CCNC(=O)Nc3ccc(Cl)cc3)CC2)cc1 [CBK268725],85.7713
3,Cc1cccnc1NS(=O)(=O)c1cccs1 [CBK299775],84.8446
4,CN1CC(=O)N2CCOC(C2)c2cccc(n2)NC(=O)C/C=C/CC2(CCNCC2)C1=O (stereo not shown) [CBK292053],137.31
5,O=C1NC(c2ccccc2)=NC1(NS(=O)(=O)c1ccccc1)C(F)(F)F (stereo not shown) [CBK267474],86.8158
6,CC1(C)CCN(Cc2nnnn2-c2ccc(S(C)(=O)=O)cc2)C1 [CBK306179],41.4298
7,CCCC(=O)N1CCC(C(=O)Nc2ccccc2F)CC1 [CBK304346],57.6851
8,CS(=O)(=O)c1ccc(CNC(=O)C2(c3ccccc3)CCCC2)cc1 [CBK161524],103.66
9,CC(C)c1cc(C(=O)N2CCCCCC2c2cnn(C)c2)no1 (stereo not shown) [CBK284971],76.5843
10,CN1CCN(c2ccc([N+](=O)[O-])c(NCCCO)c2)CC1 [CBK261846C],109.741
11,CC(C)NC(=O)C1(Cc2ccccc2-c2ccncc2)CCOCC1 [CBK284786],114.644
12,CCOC(=O)C1(Cc2ccccc2-c2ccncc2)CCNCC1 [CBK282297],100.19
13,Cc1cc(C(=O)O)ccc1NC(=O)CCCC(=O)O [CBK267917],101.959
14,Cc1ccc(CN2Cc3cc4ccccc4nc3OC(C)C2=O)o1 (stereo not shown) [CBK284004],100.163
15,CCCCN(CC(F)(F)F)C(=O)Cc1csc(NC(=O)C(C)C)n1 [CBK306217],38.4533
16,O=C(Nc1ccccc1Cl)c1ccc(NCCN2C(=O)c3ccccc3C2=O)c([N+](=O)[O-])c1 [CBK267149],113.576
17,CCC(=O)N1c2ccc(C(O)CN3CCSCC3)cc2CC1C (stereo not shown) [CBK283122],107.186
18,O=C(O)c1ccccc1-c1ccccc1C(=O)NCCc1ccccc1 [CBK263394],108.811
19,Cc1cc(Cl)c(S(=O)(=O)Nc2ccc3c(c2)OCCO3)cc1OCC(=O)NC1CCCCC1 [CBK266786],80.4057
20,CCCc1ccc(N(C)C(=O)c2ccc(OC(F)(F)F)cc2)cc1 [CBK161616],81.3459
21,COc1ccc(S(=O)(=O)Nc2nnc(C)s2)cc1 [CBK045543],52.2063
22,Cc1cccc(-c2nnc(-c3cccc(NC(=O)COc4ccccc4)c3)o2)c1 [CBK269659],79.6423
23,O=C(Cn1ncc2cccn2c1=O)Nc1cccc(F)c1 [CBK283702],78.8522
24,O=C(O)C1(Oc2ccc3ncccc3c2)CCN(C2CCCCC2)CC1 [CBK306591],43.2452
25,Cc1ccc2[nH]c(/C(C#N)=C\c3cn(CC(=O)Nc4ccccc4)c4ccccc34)nc2c1 [CBK267612],82.008
